In publication PMC12820563, “FoxP3 forms a head-to-head dimer in vivo and stabilizes its multimerization on adjacent microsatellites”:
Some of the results follow.

Molecular target: T1, MBP-FoxP1dN (Mus musculus, UniProt P58462 326-579)
T1 sequence: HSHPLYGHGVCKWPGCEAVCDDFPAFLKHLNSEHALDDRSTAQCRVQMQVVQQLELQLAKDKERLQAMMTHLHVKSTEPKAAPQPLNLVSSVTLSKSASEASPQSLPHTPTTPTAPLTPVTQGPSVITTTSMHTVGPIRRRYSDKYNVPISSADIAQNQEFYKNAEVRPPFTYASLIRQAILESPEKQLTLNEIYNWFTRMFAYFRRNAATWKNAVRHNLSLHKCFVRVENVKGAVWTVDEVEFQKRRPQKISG
Assay: PD-seq (MBP pull-down with sequencing); 20 mM Tris-HCl pH 7.5, 100 mM NaCl, 1.5 mM MgCl2, 0.4 uM protein, 0.1 uM dsDNA library, 30 min, room temperature, amylose pull-down; high values mean tight binding
Details: protein: recombinant; tags: His6-MBP; chain copies: 2; dsDNA, one strand shown
Outline: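 His6-MBP-tagged mouse FoxP3 or FoxP1 fragment lacking the N-terminus, expressed in E. coli, was mixed at 0.4 µM with 0.1 µM Klenow-filled double-stranded degenerate DNA library. Incubation was 30 min at room temperature in Tris pH 7.5 buffer with NaCl and MgCl2. Complexes were caught on amylose resin and washed three times; DNA was released with proteinase K, PCR-barcoded and Illumina-sequenced. Binding is reads-per-million enrichment, pull-down over input, with replicates pooled.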

Sequence	binding signal
GATGATTGTTCTCCCAGCTGATGAATTAAACTCGTCGAGTAAACAAATTTTCCTAATCTTTCTGTTCAAGCGCCATCTAC	0.998 RPM ratio (pull-down/input)
GATGATTGTTCTCCCAGCTGATGAATTGACCGGATCGAGTAAACAAATTTTCCTAATCTTTCTGTTCAAGCGCCATCTAC	0.857 RPM ratio (pull-down/input)
GATGATTGTTCTCCCAGCTGATGAATTGGGAGACTCGAGTAAACAAATTTTCCTAATCTTTCTGTTCAAGCGCCATCTAC	0.778 RPM ratio (pull-down/input)
GATGATTGTTCTCCCAGCTGATGAATTTCGGGGGTCGAGTAAACAAATTTTCCTAATCTTTCTGTTCAAGCGCCATCTAC	0.798 RPM ratio (pull-down/input)
GATGATTGTTCTCCCAGCTGATGAATTAACACAATCGAGTAAACAAATTTTCCTAATCTTTCTGTTCAAGCGCCATCTAC	1.57 RPM ratio (pull-down/input)
GATGATTGTTCTCCCAGCTGATGAATTTTACCCCTCGAGTAAACAAATTTTCCTAATCTTTCTGTTCAAGCGCCATCTAC	0.863 RPM ratio (pull-down/input)
GATGATTGTTCTCCCAGCTGATGAATTGCAAAAATCGAGTAAACAAATTTTCCTAATCTTTCTGTTCAAGCGCCATCTAC	1.55 RPM ratio (pull-down/input)
GATGATTGTTCTCCCAGCTGATGAATTCAGTCAGTCGAGTAAACAAATTTTCCTAATCTTTCTGTTCAAGCGCCATCTAC	0.809 RPM ratio (pull-down/input)
GATGATTGTTCTCCCAGCTGATGAATTCTATTACTCGAGTAAACAAATTTTCCTAATCTTTCTGTTCAAGCGCCATCTAC	0.895 RPM ratio (pull-down/input)
GATGATTGTTCTCCCAGCTGATGAATTTATCCATTCGAGTAAACAAATTTTCCTAATCTTTCTGTTCAAGCGCCATCTAC	1.11 RPM ratio (pull-down/input)
GATGATTGTTCTCCCAGCTGATGAATTTGCGTATTCGAGTAAACAAATTTTCCTAATCTTTCTGTTCAAGCGCCATCTAC	1.1 RPM ratio (pull-down/input)
GATGATTGTTCTCCCAGCTGATGAATTGCCTCCCTCGAGTAAACAAATTTTCCTAATCTTTCTGTTCAAGCGCCATCTAC	0.991 RPM ratio (pull-down/input)
GATGATTGTTCTCCCAGCTGATGAATTACTAGTTTCGAGTAAACAAATTTTCCTAATCTTTCTGTTCAAGCGCCATCTAC	1.16 RPM ratio (pull-down/input)
GATGATTGTTCTCCCAGCTGATGAATTACCGCCTTCGAGTAAACAAATTTTCCTAATCTTTCTGTTCAAGCGCCATCTAC	1 RPM ratio (pull-down/input)
GATGATTGTTCTCCCAGCTGATGAATTCGTTGCATCGAGTAAACAAATTTTCCTAATCTTTCTGTTCAAGCGCCATCTAC	1.19 RPM ratio (pull-down/input)
GATGATTGTTCTCCCAGCTGATGAATTTGTTGAGTCGAGTAAACAAATTTTCCTAATCTTTCTGTTCAAGCGCCATCTAC	1.21 RPM ratio (pull-down/input)
GATGATTGTTCTCCCAGCTGATGAATTGTCAAGTTCGAGTAAACAAATTTTCCTAATCTTTCTGTTCAAGCGCCATCTAC	1.02 RPM ratio (pull-down/input)
GATGATTGTTCTCCCAGCTGATGAATTCACTCGATCGAGTAAACAAATTTTCCTAATCTTTCTGTTCAAGCGCCATCTAC	0.917 RPM ratio (pull-down/input)
GATGATTGTTCTCCCAGCTGATGAATTGGTTTTTTCGAGTAAACAAATTTTCCTAATCTTTCTGTTCAAGCGCCATCTAC	1.15 RPM ratio (pull-down/input)
GATGATTGTTCTCCCAGCTGATGAATTATTTTCTTCGAGTAAACAAATTTTCCTAATCTTTCTGTTCAAGCGCCATCTAC	1.5 RPM ratio (pull-down/input)
GATGATTGTTCTCCCAGCTGATGAATTAAGCAAGTCGAGTAAACAAATTTTCCTAATCTTTCTGTTCAAGCGCCATCTAC	0.946 RPM ratio (pull-down/input)

Sequence	binding signal
GATGATTGTTCTCCCAGCTGATGAATTAACTGCGTCGAGTAAACAAATTTTCCTAATCTTTCTGTTCAAGCGCCATCTAC	1.05 RPM ratio (pull-down/input)
GATGATTGTTCTCCCAGCTGATGAATTCTCGTGATCGAGTAAACAAATTTTCCTAATCTTTCTGTTCAAGCGCCATCTAC	0.932 RPM ratio (pull-down/input)
GATGATTGTTCTCCCAGCTGATGAATTTGTCATGTCGAGTAAACAAATTTTCCTAATCTTTCTGTTCAAGCGCCATCTAC	1.05 RPM ratio (pull-down/input)
GATGATTGTTCTCCCAGCTGATGAATTAGCAGAGTCGAGTAAACAAATTTTCCTAATCTTTCTGTTCAAGCGCCATCTAC	0.835 RPM ratio (pull-down/input)
GATGATTGTTCTCCCAGCTGATGAATTCTGGCCGTCGAGTAAACAAATTTTCCTAATCTTTCTGTTCAAGCGCCATCTAC	0.73 RPM ratio (pull-down/input)
GATGATTGTTCTCCCAGCTGATGAATTAAGCTCCTCGAGTAAACAAATTTTCCTAATCTTTCTGTTCAAGCGCCATCTAC	0.777 RPM ratio (pull-down/input)
GATGATTGTTCTCCCAGCTGATGAATTAGCACTTTCGAGTAAACAAATTTTCCTAATCTTTCTGTTCAAGCGCCATCTAC	0.931 RPM ratio (pull-down/input)
GATGATTGTTCTCCCAGCTGATGAATTCACAGTGTCGAGTAAACAAATTTTCCTAATCTTTCTGTTCAAGCGCCATCTAC	0.886 RPM ratio (pull-down/input)
GATGATTGTTCTCCCAGCTGATGAATTAAGACGCTCGAGTAAACAAATTTTCCTAATCTTTCTGTTCAAGCGCCATCTAC	0.99 RPM ratio (pull-down/input)
GATGATTGTTCTCCCAGCTGATGAATTCTGTCGTTCGAGTAAACAAATTTTCCTAATCTTTCTGTTCAAGCGCCATCTAC	0.94 RPM ratio (pull-down/input)
GATGATTGTTCTCCCAGCTGATGAATTGGATCATTCGAGTAAACAAATTTTCCTAATCTTTCTGTTCAAGCGCCATCTAC	0.943 RPM ratio (pull-down/input)
GATGATTGTTCTCCCAGCTGATGAATTAATACATTCGAGTAAACAAATTTTCCTAATCTTTCTGTTCAAGCGCCATCTAC	1.18 RPM ratio (pull-down/input)
GATGATTGTTCTCCCAGCTGATGAATTCGTCTGGTCGAGTAAACAAATTTTCCTAATCTTTCTGTTCAAGCGCCATCTAC	0.807 RPM ratio (pull-down/input)
GATGATTGTTCTCCCAGCTGATGAATTTTTGATCTCGAGTAAACAAATTTTCCTAATCTTTCTGTTCAAGCGCCATCTAC	0.982 RPM ratio (pull-down/input)
GATGATTGTTCTCCCAGCTGATGAATTATACCTTTCGAGTAAACAAATTTTCCTAATCTTTCTGTTCAAGCGCCATCTAC	1.01 RPM ratio (pull-down/input)
GATGATTGTTCTCCCAGCTGATGAATTCGGAGATTCGAGTAAACAAATTTTCCTAATCTTTCTGTTCAAGCGCCATCTAC	0.87 RPM ratio (pull-down/input)
GATGATTGTTCTCCCAGCTGATGAATTTCGGTCATCGAGTAAACAAATTTTCCTAATCTTTCTGTTCAAGCGCCATCTAC	0.881 RPM ratio (pull-down/input)
GATGATTGTTCTCCCAGCTGATGAATTCTCGACCTCGAGTAAACAAATTTTCCTAATCTTTCTGTTCAAGCGCCATCTAC	0.757 RPM ratio (pull-down/input)
GATGATTGTTCTCCCAGCTGATGAATTGATTTTCTCGAGTAAACAAATTTTCCTAATCTTTCTGTTCAAGCGCCATCTAC	1.26 RPM ratio (pull-down/input)
GATGATTGTTCTCCCAGCTGATGAATTATCCTAATCGAGTAAACAAATTTTCCTAATCTTTCTGTTCAAGCGCCATCTAC	1.01 RPM ratio (pull-down/input)
GATGATTGTTCTCCCAGCTGATGAATTCAGTGCCTCGAGTAAACAAATTTTCCTAATCTTTCTGTTCAAGCGCCATCTAC	0.912 RPM ratio (pull-down/input)

Sequence	binding signal
GATGATTGTTCTCCCAGCTGATGAATTGCCGACCTCGAGTAAACAAATTTTCCTAATCTTTCTGTTCAAGCGCCATCTAC	0.815 RPM ratio (pull-down/input)
GATGATTGTTCTCCCAGCTGATGAATTAGCAACTTCGAGTAAACAAATTTTCCTAATCTTTCTGTTCAAGCGCCATCTAC	1.12 RPM ratio (pull-down/input)
GATGATTGTTCTCCCAGCTGATGAATTACCCCTGTCGAGTAAACAAATTTTCCTAATCTTTCTGTTCAAGCGCCATCTAC	0.888 RPM ratio (pull-down/input)
GATGATTGTTCTCCCAGCTGATGAATTAGAACAGTCGAGTAAACAAATTTTCCTAATCTTTCTGTTCAAGCGCCATCTAC	0.963 RPM ratio (pull-down/input)
GATGATTGTTCTCCCAGCTGATGAATTCGCGCTATCGAGTAAACAAATTTTCCTAATCTTTCTGTTCAAGCGCCATCTAC	0.866 RPM ratio (pull-down/input)
GATGATTGTTCTCCCAGCTGATGAATTCCCAAGGTCGAGTAAACAAATTTTCCTAATCTTTCTGTTCAAGCGCCATCTAC	0.722 RPM ratio (pull-down/input)
GATGATTGTTCTCCCAGCTGATGAATTAGATGACTCGAGTAAACAAATTTTCCTAATCTTTCTGTTCAAGCGCCATCTAC	1.03 RPM ratio (pull-down/input)
GATGATTGTTCTCCCAGCTGATGAATTCTTCATGTCGAGTAAACAAATTTTCCTAATCTTTCTGTTCAAGCGCCATCTAC	0.907 RPM ratio (pull-down/input)
GATGATTGTTCTCCCAGCTGATGAATTCTTTCATTCGAGTAAACAAATTTTCCTAATCTTTCTGTTCAAGCGCCATCTAC	0.879 RPM ratio (pull-down/input)
GATGATTGTTCTCCCAGCTGATGAATTTCTTACATCGAGTAAACAAATTTTCCTAATCTTTCTGTTCAAGCGCCATCTAC	0.931 RPM ratio (pull-down/input)
GATGATTGTTCTCCCAGCTGATGAATTTGGGAAATCGAGTAAACAAATTTTCCTAATCTTTCTGTTCAAGCGCCATCTAC	1.01 RPM ratio (pull-down/input)
GATGATTGTTCTCCCAGCTGATGAATTTTCCAGCTCGAGTAAACAAATTTTCCTAATCTTTCTGTTCAAGCGCCATCTAC	0.814 RPM ratio (pull-down/input)
GATGATTGTTCTCCCAGCTGATGAATTCGTATGATCGAGTAAACAAATTTTCCTAATCTTTCTGTTCAAGCGCCATCTAC	0.926 RPM ratio (pull-down/input)
GATGATTGTTCTCCCAGCTGATGAATTGCATGGCTCGAGTAAACAAATTTTCCTAATCTTTCTGTTCAAGCGCCATCTAC	0.983 RPM ratio (pull-down/input)
GATGATTGTTCTCCCAGCTGATGAATTACTAACCTCGAGTAAACAAATTTTCCTAATCTTTCTGTTCAAGCGCCATCTAC	1.09 RPM ratio (pull-down/input)
GATGATTGTTCTCCCAGCTGATGAATTGCCTGCGTCGAGTAAACAAATTTTCCTAATCTTTCTGTTCAAGCGCCATCTAC	1.05 RPM ratio (pull-down/input)
GATGATTGTTCTCCCAGCTGATGAATTCGGCCCCTCGAGTAAACAAATTTTCCTAATCTTTCTGTTCAAGCGCCATCTAC	0.769 RPM ratio (pull-down/input)
GATGATTGTTCTCCCAGCTGATGAATTCTGAACTTCGAGTAAACAAATTTTCCTAATCTTTCTGTTCAAGCGCCATCTAC	0.823 RPM ratio (pull-down/input)
GATGATTGTTCTCCCAGCTGATGAATTCACCCAATCGAGTAAACAAATTTTCCTAATCTTTCTGTTCAAGCGCCATCTAC	0.965 RPM ratio (pull-down/input)
GATGATTGTTCTCCCAGCTGATGAATTGCTACTCTCGAGTAAACAAATTTTCCTAATCTTTCTGTTCAAGCGCCATCTAC	1.11 RPM ratio (pull-down/input)
GATGATTGTTCTCCCAGCTGATGAATTGGCCCATTCGAGTAAACAAATTTTCCTAATCTTTCTGTTCAAGCGCCATCTAC	0.877 RPM ratio (pull-down/input)
